# Test results from US9745340B2, “Method for the separation of proteins containing an albumin-binding” (AFFIBODY AB, priority 2012, dated 2017).
# B1: His6-(Z06677)2-Cys: dimeric Z06677 with N-terminal His6 tag and C-terminal Cys, MGSSHHHHHHLQ-[Z06677][Z06677]-VDC (protein)
# chain: MGSSHHHHHHLQVDAKYAKELKVAFKEINTLPNLTHQQRIAFIIKLDDDPSQSSELLAEAKKLNDAQAPKVDAKYAKELKVAFKEINTLPNLTHQQRIAFIIKLDDDPSQSSELLAEAKKLNDAQAPKVDC
# How the values were obtained:
# [1] = tested on: PEP08519; experiment: Dynamic binding capacity at 10% breakthrough; details: for Original dynamic binding capacity: before alkali
# Description: In this experiment, the dynamic binding capacity and resistance to alkali was tested for the His6-(Z06677)2-Cys resin and an HSA Sepharose resin packed in the Tricorn 5/50 columns used in the chromatography study described in the previous section.
# The experiment was performed using an ÄKTAexplorer 10 chromatography system. The two columns were attached to the system and equilibrated with PBS. For the capacity study, a sample containing 0.25 mg/ml of PEP08519 in PBS was loaded on each column at a flow-rate of 0.2 ml/min (corresponding to a residence time of 2.4 min) until the absorbance at 280 nm of the solution emerging from the columns reached 10% of the absorbance of the original sample (i.e. 10% breakthrough). The dead volume (i.e. tubing and column volume, measured by running a sample through a column comprising no affinity ligand) was subtracted from the sample volume. Bound protein was eluted with 0.1 M sodium citrate, 0.9 NaCl, pH 2.3. The columns were then re-equilibrated with PBS.
# (§1) The four His6-(Z06677)2-Cys-coupled resins were packed in Tricorn 5/50 columns. The dynamic binding capacity was tested, after which the resins were subjected to 0.5 M NaOH for 2 h, followed by a second dynamic binding capacity test. The capacity tests and alkali incubations were carried out as described in Example 4.
# [2] = tested on: PEP08519; experiment: Alkali resistance: dynamic binding capacity after NaOH incubation; assay type: physicochemical; details: for Dynamic binding capacity after alkali incubation: 0.5 M NaOH for 2 h
# Description: After the capacity runs, the columns were subjected to alkali treatment by applying 5 CV of 0.2 M NaOH at a flow-rate of 1 ml/min, followed by an incubation period without flow. The total incubation time in alkali was 25 min. Neutralization of the columns was performed by washing with 5 CV of PBS at 1 ml/min, followed by a new capacity measurement as described above.
# Two more alkali treatments followed by capacity measurements were carried out as above, but with the NaOH concentration increased to 0.5 M and, in the last alkali treatment, the incubation time was extended to 2 h.
# as §1
# [3] = CNBr-activated Sepharose 4 Fast Flow
# [4] = NHS-activated Sepharose 4 Fast Flow
molecule,measurement,setting,value
B1,Original dynamic binding capacity,[1]; Activated EAH Sepharose,1.44 mol sample/mol affinity ligand
same,Original dynamic binding capacity,[1]; [3],0.92 mol sample/mol affinity ligand
same,dynamic binding capacity,"[1]; Example 4, 10% breakthrough, Z ligand on EAH Sepharose, HSA on CNBr-activated Sepharose",3.0 mg per ml resin
same,Original dynamic binding capacity,[1]; [4],0.41 mol sample/mol affinity ligand
same,Original dynamic binding capacity,[1]; SulfoLink Coupling Resin,1.44 mol sample/mol affinity ligand
same,Dynamic binding capacity after alkali incubation,[2]; Activated EAH Sepharose,1.44 mol sample/mol affinity ligand
same,Dynamic binding capacity after alkali incubation,[2]; [3],0.81 mol sample/mol affinity ligand
same,dynamic binding capacity after alkali incubations,"[2]; EAH Sepharose, 0.2 M NaOH 25 min, 0.5 M NaOH 25 min, 0.5 M NaOH 2 h",maintained its original capacity after all incubations
same,Dynamic binding capacity after alkali incubation,[2]; [4],0.38 mol sample/mol affinity ligand
same,Dynamic binding capacity after alkali incubation,[2]; SulfoLink Coupling Resin,1.44 mol sample/mol affinity ligand
